# Measured values reported in PubChem BioAssay AID686979 (National Center for Advancing Translational Sciences (NCATS), 2013).
# Several values for one entry are separate records, joined by “and”; a condition that tells them apart may be missing. Equal values may be shown once. In all, about 420,000 compounds went through this assay and about 50,000 (12%) were called active. Inconclusive means that the source gave no clear call. Such entries were picked first, then a sample of the others. Calls come from the whole dose curve; as a rule, active = well fitted inhibition curve with a large enough effect; inconclusive = small, poorly fitted or top-dose-only effect; inactive = flat fitted curve, though single readings scatter. A potency beside an inconclusive call is a rough fit, not a confirmed value.
# Test: qHTS for Inhibitors of human tyrosyl-DNA phosphodiesterase 1 (TDP1): qHTS in cells in presence of CPT; note: nearly all actives have a fitted effect of over 55% in size
# Conditions: chicken DT40 Tdp1-/-;hTDP1 cells + 20 nM CPT, ATP luminescence, 48 h; series mostly up to 46.2 µM
# Outline: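 Cell growth measured by CellTiter-Glo luminescence after a minimum 48 h, 37 C compound exposure with 20 nM CPT in Tdp1-knockout DT40 cells stably expressing hTDP1, seeded 400/well; qHTS titration format.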
# Potency is the fitted concentration of half-maximal effect; tags give direction and shape of the fitted curve.
row,Structure (SMILES),Potency
1,CC(C)CC(N)c1csc(NC(=O)Nc2ccccc2-c2ccccc2)n1 (centres undefined),active: 23.1 µM
2,CC[C@H]1CC2CN3CCc4c([nH]c5cc(OC)ccc45)[C@](C(=O)OC)(C2)[C@H]13,"inconclusive: 29.1 µM [inhibitor, single point]"
3,Cc1cc(C(=O)CS(=O)(=O)c2ccc(F)cc2)cc(C)c1OC(=O)N(C)C,"inconclusive: 29.1 µM [inhibitor, single point]"
4,Fc1ccc(N2Cc3ccccc3-n3nncc3C2)cc1,"inconclusive: 29.1 µM [inhibitor, single point]"
5,[O-][N+](=Nc1ccccc1)c1ccccc1,"inconclusive: 33.5 µM [inhibitor, single point]"
6,CCCC1(CCC)C(=O)NC(=NCc2ccccc2)NC1=O,active: 10.3 µM
7,Cc1noc(C)c1CSCC(=O)Nc1ccc(C#N)c(Cl)c1,"inconclusive: 18.4 µM [inhibitor, single point]"
8,CN1C(=O)C(=Cc2ccc(Sc3ccccc3)o2)C(=O)N(C)C1=O,"inconclusive: 16.4 µM [inhibitor, single point]"
9,CC(Cc1cccs1)NCc1ccccc1 (centres undefined),inactive
10,O=C(COC(=O)Cc1ccccc1)Nc1cc(S(=O)(=O)N2CCCCC2)ccc1Cl,inactive
11,O=C(c1ccc2c3c(cccc13)CC2)C1CCCN(Cc2ncc[nH]2)C1 (centres undefined),"inconclusive: 29.1 µM [inhibitor, single point]"
12,COc1cc2c(cc1OC)[C@H]1C(=O)c3ccc4c(c3O[C@H]1CO2)C[C@@H](C(C)(C)O)O4,active: 14.6 µM
13,Cc1ccc(Cl)cc1-n1c(O)c(C=NCCCN2CCOCC2)c(=O)[nH]c1=O,inactive
14,COC(=O)C1=C(c2ccc(OCc3ccccc3)cc2)C[C@@H]2CC[C@H]1N2C(=O)NCc1ccc(Cl)cc1,"inconclusive: 20.6 µM [inhibitor, single point]"
15,Cc1cc(C(=O)CS(=O)c2ccc(F)cc2)cc(C)c1OC(=O)N(C)C (centres undefined),"inconclusive: 25.9 µM [inhibitor, single point]"
16,CCC1(CC)C(=O)N(Cc2ccccc2)C(=O)N(Cc2ccccc2)C1=O,"inconclusive: 29.1 µM [inhibitor, single point]"
17,Cc1ccc(OP2(=O)Nc3cc(C)c(C)cc3S2)cc1 (centres undefined),"inconclusive: 20.6 µM [inhibitor, single point]"
18,CCC(C)c1ccc(N2C(=O)NC(=O)/C(=C/c3cccn3CCOc3ccc(C)cc3)C2=O)cc1 (centres undefined),"inconclusive: 29.1 µM [inhibitor, single point]"
19,COc1cccc(C2CCN(C)C2)c1 (centres undefined),inactive
20,CC(C)N1CCN(Cc2cc3c(cc2Cl)OCO3)CC1CCO (centres undefined),"inconclusive: 25.9 µM [inhibitor, single point]"
21,CN1CCC(N(C)c2nc(-c3ccc([N+](=O)[O-])cc3)nc3ccccc23)CC1,active: 8.2 µM
22,O=C(c1ccco1)c1cn(Cc2ccccc2Cl)c2ccccc12,active: 17.8 µM
23,CCCCOc1ccc(CN2CCN(CC)CC2)cc1,"inconclusive: 10.3 µM [inhibitor, partial curve]"

row,Structure (SMILES),Potency
1,Cc1ccc(-n2c(=O)[nH]c3ccccc3c2=O)cc1[N+](=O)[O-],"inconclusive: 18.4 µM [inhibitor, partial curve]"
2,CN1C(=O)NC(c2cccc(O)c2)C(C(=O)c2cccs2)C1(O)C(F)(F)F (centres undefined),"inconclusive: 29.1 µM [inhibitor, partial curve, poor fit]"
3,CC1=NCCc2c1[nH]c1cc(O)ccc21,"inconclusive: 33.5 µM [inhibitor, single point] and inconclusive: 29.1 µM [inhibitor, single point]"
4,CSCCC(c1nnnn1-c1c(C)cccc1C)N1CCC(n2c(=O)[nH]c3ccccc32)CC1 (centres undefined),active: 25.9 µM
5,CC(=O)c1ccc2c(c1)OCO2,inactive
6,COc1ccc2c(c1)[C@@]13CCC=C[C@H]1[C@@H](C2)NCC3,inactive
7,NC(Cc1ccc(F)cc1)c1csc(Nc2ccccn2)n1 (centres undefined),"inconclusive: 20.6 µM [inhibitor, single point]"
8,COC(=O)C1=C(c2ccc(F)cc2OCc2ccccc2)C[C@@H]2CC[C@H]1N2C(=O)N1CCC(O)CC1,"inconclusive: 23.1 µM [inhibitor, single point]"
9,C=C[C@H]1CN2CC[C@H]1C[C@H]2[C@H](O)c1ccnc2ccccc12,"inconclusive: 29.1 µM [inhibitor, single point]"
10,Cc1cccc2c1=NC(=O)/C(=C/c1c(O)[nH]c(=O)[nH]c1=O)C=2,"inconclusive: 11.6 µM [inhibitor, partial curve]"
11,CCCC1COC(Cn2cncn2)(c2ccc(Cl)cc2Cl)O1 (centres undefined),"inconclusive: 29.1 µM [inhibitor, single point]"
12,OC1(c2ccc(Cl)cc2)CCN(Cc2c[nH]c3ccccc23)CC1,active: 8.41 µM and active: 13 µM
13,CCOP(=O)(OCC)C(Cc1ccccc1)NC(C)=O (centres undefined),inactive
14,CCCC1CCCCC12C(=O)NC(=O)NC2=O (centres undefined),"inconclusive: 29.1 µM [inhibitor, single point]"
15,COC(=O)C(O)(c1cn(C)c2ccccc12)C(F)(F)F (centres undefined),inactive
16,Clc1ccccc1C1NCc2ccccc2-n2cccc21 (centres undefined),"inconclusive: 10.3 µM [inhibitor, partial curve, poor fit]"
17,COCCN1C(=O)/C(=C/c2c(OC)cc(OC)cc2OC)C(=O)N(c2ccccc2)C1=O,inactive
18,COc1ccccc1CNCC(=O)Nc1cc(S(=O)(=O)N2CCCCC2)ccc1C,"inconclusive: 25.9 µM [inhibitor, single point]"
19,O=C(CCl)c1ccc(O)c(O)c1,"inconclusive: 20 µM [inhibitor, single point]"
20,C#C[C@]1(O)CC[C@H]2[C@@H]3CCC4=CC(=O)CC[C@@H]4[C@H]3C(=C)C[C@@]21CC,"inconclusive: 33.5 µM [inhibitor, single point]"
21,CC(C)CCN(N=O)[C@@H](Cc1ccccc1)CN(N=O)[C@@H](Cc1ccccc1)CN(C)N=O,"inconclusive: 29.1 µM [inhibitor, single point]"
22,O=Cc1c(C(=O)O)n(Cc2ccccc2F)c2ccccc12,inactive
23,Cc1ccccc1-c1ccc2n1Cc1cnnn1-c1ccccc1-2,"inconclusive: 20.6 µM [inhibitor, single point]"

row,Structure (SMILES),Potency
1,CC[C@H](O)C(C[C@H](C)N(C)C)(c1ccccc1)c1ccccc1,active: 44.1 µM
2,COC(=O)C(O)(c1ccc(N(C)C(=O)c2cccs2)cc1)C(F)(F)F (centres undefined),active: 3.26 µM
3,CCOC(=O)[C@]12Cc3cc(Cl)ccc3[C@H]1N(Cc1ccccc1)C(=O)c1ccccc12,active: 10 µM
4,Cc1ccc(Cn2nc(C(=O)Nc3ccc(Br)cc3)cc2C)cc1,"inconclusive: 20.6 µM [inhibitor, single point]"
5,COc1ccc(CCNCc2ccc3c(c2)n(C)c(=O)n3C)cc1,"inconclusive: 20.6 µM [inhibitor, single point]"
6,Cc1cc(C)n2c(Nc3ccc4c(c3)OCCO4)c(-c3cc4ccccc4o3)nc2n1,"inconclusive: 29.1 µM [inhibitor, single point]"
7,CCCCC(CC)COP(=O)(OCC(CC)CCCC)OCC(CC)CCCC (centres undefined),"inconclusive: 29.1 µM [inhibitor, single point]"
8,CN1CCN(C(=S)SCC(=O)Nc2ccc(Cl)cc2C(=O)c2ccccc2)CC1,active: 14.6 µM
9,CCOc1ccc(NC(=S)NC2CC3CCC(C2)N3Cc2ccco2)cc1 (centres undefined),"inconclusive: 23.1 µM [inhibitor, single point]"
10,COC(=O)C1=C(c2c(C)noc2C)C[C@@H]2CC[C@H]1N2C(=O)NCCOc1ccccc1,inactive
11,C=CCn1c(=O)c(C(=O)NCc2ccccc2)c(O)c2ccccc21,"inconclusive: 20.6 µM [inhibitor, single point]"
12,O=C(Nc1ccc(F)cc1)c1c(O)c2c(n(Cc3ccccc3)c1=O)CCCC2,"inconclusive: 29.1 µM [inhibitor, single point]"
13,CC(=O)N1N=C(c2c(O)n(C)c(=O)n(C)c2=O)CC1c1ccccc1 (centres undefined),"inconclusive: 16.4 µM [inhibitor, single point]"
14,CCOP(=S)(OCC)SCSc1ccc(Cl)cc1,inactive
15,CC[C@]12C=CCN3CCC4(c5cc(Br)c(OC)cc5N(C)C4[C@@](O)(C(=O)OC)[C@@H]1OC(C)=O)C32 (some centres undefined),"inconclusive: 29.1 µM [inhibitor, single point]"
16,Cc1ccc2c(c1)cc1c(=O)n(CC(=O)N3CCC4(CC3)OCCO4)nc(C)n12,"inconclusive: 29.1 µM [inhibitor, single point]"
17,CCN[C@@H](C)Cc1ccccc1,inactive
18,CO/N=C(/C(=O)N[C@@H]1C(=O)N2C(C(=O)O)=C(Cn3nnc(C)n3)CS[C@H]12)c1csc(N)n1,"inconclusive: 0.006 µM [inhibitor, full curve, poor fit]"
19,CN1CC(C(=O)c2cccc(C(F)(F)F)c2)C(c2ccc(Cl)cc2)C1 (centres undefined),active: 23.1 µM
20,CCCCCCN1CCN(c2ccccc2Cl)CC1,"inconclusive: 29.1 µM [inhibitor, single point]"
21,COc1ccc(-n2nc(C(=O)NCC(=O)N3CCC4(CC3)OCCO4)c3ccccc3c2=O)cc1OC,inactive
22,O=C1NCN(c2ccccc2)C12CCN(C(c1ccccc1OC(F)(F)F)c1nnnn1C1CCCCC1)CC2 (centres undefined),"inconclusive: 23.1 µM [inhibitor, single point]"
23,Cc1ccc2c(CN3CC=C(c4ccccc4)CC3)cc(=O)oc2c1C,"inconclusive: 29.1 µM [inhibitor, single point]"
